Measurements as given in PubChem BioAssay AID493208 (National Center for Advancing Translational Sciences (NCATS), 2011).
Hit rate of the full screen: of about 44,000 compounds, about 340 (0.77%) were called active. Roughly 5% stayed inconclusive and do not appear here. Calls follow the shape of the dose curve; as a rule, active = well fitted inhibition curve with a large enough effect; inconclusive = small, poorly fitted or top-dose-only effect; inactive = flat fitted curve, though single readings scatter. Some of the results follow.

Assay: Acumen qHTS Assay for Inhibitors of the mTORC1 Signaling Pathway in MEF (Tsc2-/-, p53-/-) Cells: Sytravon; also: nearly all actives have a fitted effect of over 50% in size;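 as to activity change, negative = inhibition: plate controls were DMSO for no effect and rapamycin for full effect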
Conditions: phospho-rpS6 immunofluorescence/PI, 24 h; series mostly up to 38.3 µM; activity change, negative = inhibition: at the top concentration
How it was run: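 Cell-based qHTS: Tsc2-/- p53-/- MEF, 24 h cpd, 37 °C; fix/perm, anti-phospho-S6 Alexa-488 + PI; Acumen 488 nm scan; pS6/PI ratio, % positive cells; rapamycin 7.5 nM = inhibition ref; PI count = viability.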
Potency is read from the fitted curve at half-maximal effect.

| Compound | activity change, negative = inhibition | Potency |
| --- | --- | --- |
| COc1ccc(-c2nc3scc(CCNC(=O)c4cc(OC)cc(OC)c4)n3n2)cc1 | inactive: 1.65% | – |
| CCOc1ccc(C(=O)OCc2cc(=O)n3cc(C)sc3n2)cc1 | inactive: 0.793% | – |
| Cc1cccc(C(=O)Nc2ccc3oc(-c4ccncc4)nc3c2)c1 | inactive: -18.5% | – |
| CCCCCn1cc2c(c1-c1ccc(Cl)cc1)c(=O)n(C)c(=O)n2C | inactive: -2.99% | – |
| COc1ccc2c(c1)C=C(C(=O)NCc1cc(Br)ccc1OC)CO2 | inactive: 2.23% | – |
| CCOC(=O)C1CCCN(S(=O)(=O)c2ccc3[nH]c(=O)oc3c2)C1 (stereo unspecified) | inactive: 0.0241% | – |
| COc1ccccc1NC(=O)c1sc2ncn(Cc3ccccc3Cl)c(=O)c2c1C | inactive: 0.749% | – |
| CCc1ccccc1NC(=O)c1sc(-n2nc(C)c(Cc3ccc4c(c3)OCO4)c2C)nc1C | inactive: -4.3% | – |
| COC(=O)c1cccc(Nc2nn3c(=O)c4cc5c(cc4nc3s2)OCO5)c1 | inactive: -15.9% | – |
| COc1ccc(S(=O)(=O)NCC(c2ccc(N(C)C)cc2)N2CCOCC2)cc1 (stereo unspecified) | inactive: 1.75% | – |
| COc1ccc(-c2[nH]c3ccccc3c2SCCNC(=O)c2ccc(S(=O)(=O)N(C)C)cc2)cc1 | inactive: 1.76% | – |
| Cc1ccc2[nH]c3c(=O)n(CC(=O)NC(C)C)ncc3c2c1 | inactive: -0.362% | – |
| COc1ccc(CNC(=O)CSc2ncc(S(=O)(=O)c3ccc(Br)cc3)c(=O)[nH]2)cc1 | inactive: -0.511% | – |
| O=C(CSC1=Nc2ccccc2N=C(c2ccc(F)cc2)C1)NCc1ccccc1Cl | inactive: 1.13% | – |
| CCCCOc1ccc(CNC(=O)Cc2ccc(NC(=O)N3CCSc4ncccc43)cc2)cc1 | inactive: -27.8% | – |
| CCNc1oc(-c2ccc(COc3ccc(Cl)cc3)o2)nc1C#N | inactive: -0.795% | – |
| NC(=O)c1ccccc1NC(=O)Cn1nc(Cc2cccnc2)c2ccccc2c1=O | inactive: 1.02% | – |
| CCOc1ccc(CNC(=O)c2sc3ncnc(N(C)C4CCCCC4)c3c2C)cc1 | inactive: 1.94% | – |
| Cc1cccc(NC(=O)CSc2nc(=O)n(Cc3ccccn3)c3c2CCC3)c1C | inactive: -4.88% | – |
| COc1ccc(CNC(=O)c2cc3cccc4c3n2CC(C)S4)c(OC)c1 (stereo unspecified) | inactive: -23.5% | – |
| O=C(CSc1ncc(CO)n1Cc1ccc(Cl)cc1)NCc1ccc(F)cc1 | inactive: -10.3% | – |
| COc1ccc(C(=O)Oc2cc(-c3ccc4c(c3)OCO4)cc(=O)c3c(C)oc(C)c23)cc1 | inactive: 3.6% | – |
| Cc1ccc(Cl)cc1NC(=O)CSc1nc2c(c(=O)[nH]1)CN(Cc1ccccc1)CC2 | inactive: 0.383% | – |
| COc1ccc(S(=O)(=O)N2CCN(CC(=O)Nc3ccc(Cl)c(C(F)(F)F)c3)CC2)cc1 | inactive: -3.69% | – |

| Compound | activity change, negative = inhibition | Potency |
| --- | --- | --- |
| COC(=O)c1cc2oc(C)cc2n1CC(=O)Nc1cc(Cl)ccc1OC | inactive: -5.81% | – |
| CCOC(=O)c1ccc(NC(=O)CCc2c(C)nc3c(-c4ccc(F)cc4)c(C)nn3c2C)cc1 | inactive: 3.9% | – |
| Cc1ccccc1C(=O)Nc1ccc(C(=O)OCc2cc(=O)n3nc(C(C)C)sc3n2)cc1 | inactive: 0% | – |
| COc1ccc(NC(=O)C2Cc3ccccc3N2C(=O)c2ccccc2)cc1OC (stereo unspecified) | inactive: 6.44% | – |
| Cc1ccc(-c2onc(C)c2C)cc1S(=O)(=O)Nc1ccc(Cl)cn1 | inactive: 5.67% | – |
| CCOc1ccc(NC(=O)N(C(C)C)C2CCN(C(C)=O)CC2)cc1 | inactive: 6.07% | – |
| O=S(=O)(c1ccc2nc(N3CCN(c4ccccc4)CC3)ccc2c1)N1CCCCC1 | inactive: -3.35% | – |
| COc1ccc(-c2noc(-c3cccc(OC)c3OC)n2)cc1 | inactive: -13.7% | – |
| Cc1cccc(NC(=O)CSc2nc3c(oc4ccccc43)c(=O)n2-c2ccc(F)cc2)c1 | inactive: 4.73% | – |
| COc1ccc2c(CNCCc3ccccc3)c(C(=O)O)n(Cc3cccc(F)c3)c2c1 | inactive: -0.565% | – |
| COc1ccc(Nc2cc(C(=O)NCc3ccccc3)c3ccccc3n2)c(OC)c1 | inactive: 5.58% | – |
| Cc1oc2ccc(O)c(CN3CCCC3)c2c1C(=O)Nc1cccc(Cl)c1C | inactive: -5.14% | – |
| CCOc1ccc(-c2cn3c(n2)sc2cc(C(=O)NC4CCCc5ccccc54)ccc23)cc1 (stereo unspecified) | inactive: -16.3% | – |
| Cc1ccc(NC(=O)CC(C)S(=O)(=O)c2ccc3c(c2)NC(=O)CO3)cc1C (stereo unspecified) | inactive: -5.8% | – |
| COc1ccc(NC(=O)c2cn3c4c(ccc(Cl)c4c2=O)OC(C)C3)cc1OC (stereo unspecified) | inactive: 0.396% | – |
| CSc1ncc(C(=O)Nc2ccc(C(C)=O)cc2)c(-c2ccccc2)n1 | inactive: -3.31% | – |
| COc1ccc(N(Cc2cccs2)C(=O)COc2cc(C)c(Cl)c(C)c2)cc1 | inactive: -9.68% | – |
| CCOc1ccc2nc(NC(=O)c3cc(=O)c4cc(C)cc(C)c4o3)sc2c1 | inactive: 8.48% | – |
| Cc1cccc(NC(=O)Cc2ccc(-n3c(C)nc4cccnc43)cc2)c1C | inactive: -8.31% | – |
| O=c1c2cnn(-c3ccc(F)cc3)c2ncn1Cc1ccc(F)cc1 | inactive: 0.0205% | – |
| COc1ccc(Cl)cc1NC(=O)Cn1cc2c(n1)CCC(C)C2 (stereo unspecified) | inactive: -5.05% | – |
| CSc1nnc2[nH]c(=O)cc(C)n12 | inactive: 1.24% | – |
| COc1ccc(CNC(=O)C2Cc3cc(S(=O)(=O)N4CCCCCC4)ccc3N2C(C)=O)cc1 (stereo unspecified) | inactive: 0% | – |
| COc1ccc(CNC(=O)c2ccc(-c3nc(CSc4ccccc4)c(C)o3)cc2)c(OC)c1 | inactive: -0.479% | – |

| Compound | activity change, negative = inhibition | Potency |
| --- | --- | --- |
| CC(=O)c1cccc(NC(=O)c2cc3nc(-c4ccc(Br)cc4)cc(C(F)(F)F)n3n2)c1 | inactive: -0.0667% | – |
| CCc1ccc(NC(=O)c2cc3c([nH]c2=O)CC(C)(C)CC3=O)cc1 | inactive: -6.07% | – |
| N#Cc1c[nH]n2c(NC3CCCCC3)c(-c3cccc(Cl)c3)nc12 | inactive: -0.913% | – |
| CCOc1ccc2oc(=O)cc(CN3CCN(c4ccccc4)CC3)c2c1 | inactive: 4.76% | – |
| Cc1ccc(-c2nc(C)c(CCNC(=O)C(=O)Nc3ccc4c(c3)OCO4)s2)cc1 | inactive: 0.514% | – |
| COc1ccc(CCN2C(=O)N(c3ccccc3)C(=O)C2CC(=O)Nc2ccccc2)cc1 (stereo unspecified) | inactive: -3.71% | – |
| CCCN1C(=O)C2(c3ccccc31)c1c(oc3ccc(C)cc3c1=O)C(=O)N2CCOC (stereo unspecified) | inactive: -0.927% | – |
| CCOC(=O)C1CCN(CCC(=O)Nc2ccc(OC)cc2)CC1 | inactive: 4.22% | – |
| Cc1nc(N2CCOCC2)c2c(C(=O)N3CCN(c4cccc(C)c4C)CC3)c(C)oc2n1 | inactive: 6.04% | – |
| Cc1cc(C)c(NC(=O)CCC(=O)N2Cc3ccccc3Oc3ncccc32)c(C)c1 | inactive: -4.17% | – |
| COC(=O)c1ccccc1NC(=O)Cn1c(=O)n(CCCC(=O)NCCc2ccc(OC)c(OC)c2)c(=O)c2ccccc21 | inactive: -6.65% | – |
| COc1ccc(Nc2cc(C)c3cc(NC(=O)c4cc(OC)cc(OC)c4)ccc3n2)cc1 | inactive: -3% | – |
| Cc1ccc(C)c(NC(=O)NCc2ccc3c(c2)CCN3C(=O)c2ccccc2)c1 | inactive: 3.32% | – |
| CCCOc1ccc(C2c3c(oc4ccccc4c3=O)C(=O)N2c2nc(C)c(C(=O)OCC)s2)cc1 (stereo unspecified) | inactive: -3.11% | – |
| COc1ccc(S(=O)(=O)NCc2ccc(C(=O)NCc3ccccc3)cc2)cc1 | inactive: -17.5% | – |
| CC(=O)c1ccc(N2CCN(C(=O)c3ccc(Cn4c(=O)[nH]c5ccccc5c4=O)cc3)CC2)cc1 | inactive: -3.89% | – |
| CC(C)c1ccc(NC(=O)C2(C)Cc3ccccc3C(=O)O2)cc1 (stereo unspecified) | inactive: -10.5% | – |
| Cc1ccc2c(c1)-c1c(cnn1CC(=O)N1CCN(c3cc(Cl)ccc3C)CC1)CO2 | inactive: -3.49% | – |
| CC(C)C(NS(=O)(=O)c1cccc2cccnc12)C(=O)Nc1ccc(OC(F)(F)F)cc1 (stereo unspecified) | inactive: -0.922% | – |
| O=C(c1ccccc1)c1ccc2nc(Nc3cc(Cl)ccc3O)c3nncn3c2c1 | inactive: -5.55% | – |
| Cc1ccc(CNC(=O)CCCCn2c(=O)c3ccccc3n(Cc3ccc(C)cc3)c2=O)cc1 | inactive: 7.89% | – |
| CCCCSCCCNC(=O)c1cn(C)c2ccc(S(=O)(=O)N3CCCC3)cc2c1=O | inactive: -0.288% | – |
| Cc1cc(C)cc(OCC(=O)N(Cc2ccc(Cl)cc2)CC2CCCO2)c1 (stereo unspecified) | inactive: -7.14% | – |
| CCOC(=O)c1c(S(=O)(=O)N2CCC(C(=O)NCc3ccccc3OC)CC2)c(C)n(C)c1C | inactive: -7.41% | – |

| Compound | activity change, negative = inhibition | Potency |
| --- | --- | --- |
| Cc1ccc(-n2nc(C(=O)Nc3ccc(C)c(F)c3)c(=O)n(C)c2=O)cc1 | inactive: 1.28% | – |
| O=C(NC1CCCC1)c1ccc2c(=O)n(Cc3ccccc3)c(SCc3ccccc3)nc2c1 | inactive: -0.686% | – |
| COc1ccc(-c2nc3ccc(C)cn3c2Nc2ccc3c(c2)OCO3)cc1 | inactive: 2.1% | – |
| CCc1cccc(C)c1NC(=O)C1CCN(S(=O)(=O)Cc2ccccc2)CC1 | inactive: -0.891% | – |
| Cc1ccc(-n2nnnc2CNC(=O)c2ccccc2)cc1C | inactive: 0% | – |
| COc1cc(C(=O)N2CCN(c3ccc(Nc4ccccc4)nn3)CC2)cc(OC)c1OC | inactive: -1.78% | – |
| CC1CCCCN1S(=O)(=O)c1cc2c3c(c1)CC(=O)N3CCC2 (stereo unspecified) | inactive: -10.7% | – |
| COc1ccc(N2CC(NC(=O)COc3ccc4ccccc4c3)CC2=O)cc1 (stereo unspecified) | inactive: -1.18% | – |
| O=C(Cn1c(-c2cccs2)cc2ccccc21)NCc1ccccc1Br | inactive: -8.46% | – |
| COc1cccc(C(=O)Nc2ccccc2-c2nc3ccccc3s2)c1 | inactive: 7.58% | – |
| CN(C)S(=O)(=O)c1ccc2c(c1)N(CC(=O)N1CCN(c3ccccc3F)CC1)CCS2 | inactive: 0% | – |
| CCc1cccc(C)c1NC(=O)CN1C(=O)C2(SCC(=O)N2c2cc(C)cc(C)c2)c2ccccc21 (stereo unspecified) | inactive: -3.83% | – |
| Cc1ccc(-c2nc(CS(=O)(=O)CC(=O)NCc3ccccc3Cl)c(C)o2)cc1 | inactive: 3.3% | – |
| O=S(=O)(c1ccc2[nH]c3c(c2c1)CCCCC3)N1CCN(c2cccc(Cl)c2)CC1 | inactive: -3.09% | – |
| Cc1ccccc1CNC(=O)c1sc2ncnc(N(C)C3CCCCC3)c2c1C | inactive: 0.981% | – |
| CC1=C(C(=O)Nc2cccc(C(F)(F)F)c2)C2(CCCCC2)OC1=O | inactive: 1.74% | – |
| Cc1cccc(NC(=O)c2sc(-n3nc(C)c(CCC(C)C)c3C)nc2C)c1C | inactive: 0% | – |
| COc1cc(OC)cc(C(=O)Nc2cccc(-c3cn4cccnc4n3)c2)c1 | inactive: -0.786% | – |
| CCCOc1ccc(NC(=O)CC2C(=O)N(c3ccc(C)cc3)C(=O)N2Cc2cccc(OC)c2)cc1 (stereo unspecified) | inactive: 2.08% | – |
| O=c1c2cc3c(nc2ncn1Cc1ccc(Cl)cc1)CCCC3 | inactive: 1.24% | – |
| COc1ccc(NC(=O)CN2C(=O)c3ccccc3Sc3ccc(C(=O)N4CCOCC4)cc32)c(OC)c1 | inactive: 1.72% | – |
| COc1cc(C(=O)OCc2cc(=O)n3nc(C(C)C)sc3n2)cc(OC)c1OC | inactive: -3.67% | – |
| CCOc1ccccc1NC(=O)CN1CCCN(Cc2cccc(Cl)c2)S1(=O)=O | inactive: -5.88% | – |
| COc1cc(NC(=O)c2cccc(F)c2)ccc1NC(=O)c1cc2ccccc2o1 | – | active: 16.5 µM |
